Measurements published in the supplement of paper PMC4166925.
± gives the standard deviation of the averaged measurements. Over roughly 33,000 sequences, “E-score (dimensionless, -0.5 to 0.5)” has its median near -0.049; the highest 2% begin near 0.37. The list shows a part of the results.

system: T1, PmTbr T-box DNA-binding domain (GST fusion); experiment: PBM E-score of 8-mer (E-score (dimensionless, -0.5 to 0.5)); Tbr is Tbrain of the sea star Patiria miniata (Pm) or the sea urchin Strongylocentrotus purpuratus (Sp); higher = stronger binding preference; most listed sequences are background and not binding sites; details: the construct has about 5 more residues each side
T1 sequence: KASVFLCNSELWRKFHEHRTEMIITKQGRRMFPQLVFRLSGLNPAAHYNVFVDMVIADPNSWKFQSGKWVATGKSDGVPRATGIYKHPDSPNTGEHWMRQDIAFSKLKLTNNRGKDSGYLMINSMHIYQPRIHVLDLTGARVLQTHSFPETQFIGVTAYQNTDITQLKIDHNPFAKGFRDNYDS
Outline: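 Expression of GST-fused Tbr T-box DNA-binding domains, each holding the full T-box plus roughly five flanking residues, was carried out in BL21 E. coli at 20 °C, with purification by glutathione affinity chromatography. Universal Agilent arrays made double-stranded by primer extension were incubated with the protein at 200 nM in PBS (pH 7.5), then scanned and quantified. All ungapped 8-mers were scored from probe intensities, and each received an enrichment E-score from the Universal PBM Analysis Suite, averaged over duplicate arrays.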

Sequence	PBM E-score of 8-mer
ATAGGCGC	0.31 ± 0.015
ACTGACCC	-0.226 ± 0.11
AGTAGTGG	-0.0452 ± 0.05
CGGGTCTA	-0.0532 ± 0.011
AATTAGAA	-0.2 ± 0.0053
AGGCGGGC	-0.0452 ± 0.043
ACATGTCA	0.238 ± 0.0027
ACCCGTAC	-0.198 ± 0.038
ATAAAGGC	-0.0452 ± 0.0065
AGAACTCA	-0.17837 ± 1.4e-05
AGTGATCA	-0.104 ± 0.025
GGCGCACC	0.00299 ± 0.059
CCAAACCA	-0.0605 ± 0.059
AGACGTAT	-0.102 ± 0.0031
AACTGCAG	-0.0653 ± 0.069
GTTATTAA	0.067 ± 0.082
GACACTTA	0.3962 ± 0.0036
GCTGCAGA	0.033 ± 0.027
AAACACTT	0.348 ± 0.042
ATGTCAAA	0.0972 ± 0.0062
TAGGATCA	-0.22 ± 0.059
AACGCGAG	0.123 ± 0.052
ACACGCAA	0.106 ± 0.029
GCCCCGGA	-0.1 ± 0.028

Sequence	PBM E-score of 8-mer
GCAACCCA	-0.0334 ± 0.089
AGTTTGAT	0.0116 ± 0.073
CAAAGTGA	0.307 ± 0.035
CAACCCCA	0.0413 ± 0.099
CAGACACC	0.355 ± 0.0066
ACGATACG	-0.0423 ± 0.011
CGGTCTCC	-0.176 ± 0.065
CGAAGGGA	0.00651 ± 0.088
GGCAACGA	0.0835 ± 0.033
GAATCGGA	0.0845 ± 0.029
CTAGTCCA	-0.198 ± 0.054
CCCGACCG	0.0153 ± 0.029
CTTTTAAA	-0.236 ± 0.058
CCGCAGCA	-0.0679 ± 0.057
ATTACCTG	-0.154 ± 0.037
AAGGCCGT	-0.225 ± 0.053
ACCGCATG	-0.233 ± 0.0099
AGGCGCCG	0.246 ± 0.016
AGTGTTAC	0.3946 ± 0.0021
ACGCTTGA	0.0807 ± 0.032
AAATGGCA	0.155 ± 0.048
GTAGTATA	-0.113 ± 0.025
AAGGCTTA	-0.105 ± 0.0071
CATGCTCG	-0.065 ± 0.056

Sequence	PBM E-score of 8-mer
ATGGGACG	0.000355 ± 0.031
CAAAGGGC	-0.227 ± 0.042
GAGGGACA	-0.0259 ± 0.075
ATGTTAAT	0.0448 ± 0.049
CCAGCCGC	-0.111 ± 0.021
CCATTGAC	-0.0902 ± 0.052
AGATTAAA	-0.0864 ± 0.019
ATTCTAAA	-0.224 ± 0.038
TCCGTTCA	0.0167 ± 0.018
AGAGTACG	-0.0162 ± 0.0013
AACGTAAT	-0.191 ± 0.12
AGGCTCGC	0.158 ± 0.027
CGAAGGAA	-0.0473 ± 0.07
ATAAGGGA	-0.228 ± 0.039
ATCGGAGC	-0.183 ± 0.044
CCCGATGC	-0.2 ± 0.053
GCCCTGGA	-0.253 ± 0.037
ACACAAAC	0.0688 ± 0.063
ACACCAGT	0.312 ± 0.049
AGAACCCA	-0.283 ± 0.0036
GGCTATGA	-0.0888 ± 0.045
TATTTGGA	-0.104 ± 0.042
CATAGGAA	-0.323 ± 0.034
GAGGACCA	-0.295 ± 0.044

Sequence	PBM E-score of 8-mer
CCACGAGA	-0.212 ± 0.049
AGTCCTCC	-0.295 ± 0.0079
CCCAGACA	0.0586 ± 0.013
GCACTGAC	0.0486 ± 0.0086
CGCGCAAC	0.14 ± 0.051
ATGGACCA	-0.263 ± 0.049
GTGTGTTA	0.274 ± 0.012
ATCCGTGC	-0.0614 ± 0.051
AATCTAAT	-0.111 ± 0.023
CGGCGGAA	-0.06 ± 0.0026
CTAGAGTA	-0.244 ± 0.022
AATTCGTC	0.119 ± 0.0033
ATCAATAG	-0.212 ± 0.012
CTCCCTCA	-0.0331 ± 0.14
AACCCTTC	-0.377 ± 0.028
CCACGTTA	0.131 ± 0.0074
ATAGGACA	-0.27 ± 0.049
AAATGGGG	-0.0909 ± 0.011
ACTATCCA	-0.174 ± 0.0085
CAACTGAG	0.0533 ± 0.042
GACAACCA	0.205 ± 0.035
CGGTCAAC	-0.0198 ± 0.048
